Reference: the supplement of paper PMC11417369
± gives the standard deviation of the averaged measurements. This is one part of the list.

Tested on: PfAP2-LT AP2 domain (GST-tagged)
Test: gcPBM binding intensity (ln(normalized median fluorescence intensity)); higher = stronger DNA binding
Procedure, shortened: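 For binding intensity, the highest Masliner-normalised natural-log median intensity across replicate spots of either probe orientation was taken. Protein bound to the array was stained with Alexa488 anti-GST antibody and scanned at 488 nm. The protein, GST-tagged P. falciparum DNA-binding domains from E. coli at about 25 μg on average, had been applied for 1 h to an Agilent 4 × 180k array of primer-extended double-stranded 36-bp intergenic genomic probes and negative controls.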

Row | Sequence | gcPBM binding intensity (ln)
1 | ATGTTATAAAATATATGTACATATTTATATAAAATA [XGTACX_site5766] | 8.62 ± 0.5
2 | ATATTATATATATGATGTACTAAATATATTATTATG [XGTACX_site1703] | 8.71 ± 0.41
3 | ATAAATAATTAGAATTGTACAAAAATTATATATATG [XGTACX_site5107] | 8.73 ± 0.43
4 | TATTTTATATTATCATGTACAAAAAAAAAGAAAAGA [XGTACX_site5379] | 8.47 ± 0.43
5 | TTTATATTCTTTTTTTAACACACAAAAAAAATAAAA [CACACA_site8574] | 8.22 ± 0.43
6 | TCTATTAATGAATATACACACATTATATATATATAT [CACACA_site5410] | 9.02 ± 0.38
7 | TATATAAAAAGTAATTGTACATATATATATATATAT [XGTACX_site7953] | 9.32 ± 0.042
8 | ATATATTTATATAAATGTACACGTGAATATATAATA [XGTACX_site1166] | 8.97 ± 0.32
9 | ATATGTAAAATGAAGATACATACATACATACATACA [CACACA_negctrl_site715] | 9.4 ± 0.24
10 | ATAATATGCAATATTACACACAATTCATCATTTTTT [CACACA_site7477] | 8.96 ± 0.42
11 | GTATATTTAAATAAAAGTACGTAAAGATATATTTAA [XGTACX_site8087] | 8.86 ± 0.57
12 | ACATATGAATATTTTTGTACGTATATTGTTATTCTT [XGTACX_site4720] | 9.09 ± 0.44
13 | AAAAAAAAAAAACACACACACACATACAAAATATAT [CACACA_site1448] | 10.04 ± 0.071
14 | GTAATTTAAATAACAAGTACTAATGTGGATAAGCAG [XGTACX_site1163] | 8.87 ± 0.42
15 | AATTATACGAAATAAAACTTAATAGACAAAAAATTA [CACACA_negctrl_site1384] | 8.65 ± 0.43
16 | ATTTTGTATTGACGCTGTACAAACATTAATATAATA [XGTACX_site2496] | 8.72 ± 0.29
17 | TTTTGCGTAGCAACGAGGTTTTTAAAAATGTAACCA [GTGCAC_negctrl_site691] | 8.38 ± 0.49
18 | AACAAAATAAAACACACACACAAATGTACATATATA [CACACA_site2424] | 9.88 ± 0.26
19 | TAGAAGCATCATTTTACACACATGCAAATGTAAACT [CACACA_site6973] | 8.97 ± 0.34
20 | CAAATTTTTAAAAATGCATGTTCATCCATCCCATAT [TGCATGCA_site467] | 8.68 ± 0.47
21 | TTTGTATGATCATAAAGTACTAATTTACATTCAGCA [XGTACX_site8596] | 8.66 ± 0.39
22 | ATATATATATATAGAAGTACTCTTATATATTTTATA [XGTACX_site1384] | 8.91 ± 0.21

Row | Sequence | gcPBM binding intensity (ln)
23 | GATATGGAATATATGTGTACATATATATATATTATA [XGTACX_site1724] | 8.91 ± 0.41
24 | AAAAAAAAAAAAAATACACACACATAAAAAAAAAAA [CACACA_site8555] | 9.52 ± 0.54
25 | GTAGAATCAGTATTCACACATAAATGTATCCAAATG [CACACA_site5395] | 8.91 ± 0.41
26 | ATATATGAAAATATATGTACACAACATATAAAATAG [XGTACX_site5132] | 9.08 ± 0.42
27 | TTTTCATTCTTATATAAATATTATTTTATATAAAAT [GTGCAC_negctrl_site674] | 8.24 ± 0.47
28 | AATTATATACCATGCACACAAATATTCATACAGGAA [CACACA_site4057] | 9.16 ± 0.4
29 | AAAAATATATATATATTTCTTCTTTGTTAAAATGTA [CACACA_negctrl_site1459] | 8.32 ± 0.42
30 | TATATACTTATATACTGTACTCATCATCTTTTAAAG [XGTACX_site6099] | 8.67 ± 0.42
31 | AAAATATATCAAAACACACTCACATATAATACTTAC [CACACA_site6031] | 9.11 ± 0.37
32 | TTTTTTTTTTTTTAAACATGCAAAATATATAATTTT [TGCATGCA_site633] | 8.16 ± 0.34
33 | TAATATATCTATAATACACACTATTCTAATCACATA [CACACA_site6731] | 8.72 ± 0.41
34 | TAGAAACTATGTAATGCACACCAAAATAAAATTATT [CACACA_site8578] | 8.95 ± 0.45
35 | TTTTGGATACTTCATTTGTCCTGTTTTTTTTTTTTA [CACACA_negctrl_site399] | 8.74 ± 0.49
36 | TTTTAAAAAATAAAATATTATTGAAGTAAAATATGA [CACACA_negctrl_site758] | 8.21 ± 0.49
37 | ATATACTATTAACCACATATGTGTGTTAATTTATAT [GTGCAC_negctrl_site315] | 9.04 ± 0.39
38 | TTGAACCCCACTAACACACACACGCACGCTCAGAAA [CACACA_site2983] | 9.74 ± 0.23
39 | TGCTATTTCATATTCTGTACTAAAACAAGATAATAA [XGTACX_site3852] | 8.31 ± 0.41
40 | ATATTAATTATAACTTGTACGTAAAAGGAAAACAAT [XGTACX_site3269] | 8.81 ± 0.45
41 | TTTTTAATATTGTATGCATGTCGTAATAAAAAATTT [TGCATGCA_site259] | 8.38 ± 0.36
42 | AACACACACATATATATATATATATATATATATATA [GTGCAC_negctrl_site573] | 10.5 ± 0.13
43 | ATAATAAACATATATGTACACACATATACATATATA [CACACA_site8924] | 9.02 ± 0.4
44 | TCCTTAAAAAAACCTTAACACACATAAACTATAATT [CACACA_site9001] | 8.65 ± 0.4

Row | Sequence | gcPBM binding intensity (ln)
45 | TTTTTTTTTAAGTTTGCACACATGGAAGACAAAAAT [CACACA_site2505] | 8.77 ± 0.28
46 | ATGAATGAATACGTTTTACACACTTGAATATAATTT [CACACA_site8237] | 8.87 ± 0.42
47 | TATTTCACAAAAAAAAAAAAAAAAAAGAAGCAAAAA [CACACA_negctrl_site1040] | 8.24 ± 0.6
48 | AACATAACAAAAAAAAAAAAAAATATATATATATAT [TGCATGCA_negctrl_site370] | 9.56 ± 0.29
49 | GTATATTGTACCATCACACATGTAAAACATAGATGT [CACACA_site5359] | 8.94 ± 0.43
50 | TATTTTATATACAGTGGTACTTTTTTTTTTTTTTTT [XGTACX_site2475] | 8.55 ± 0.69
51 | AAAAAAAAAAAAAAATCACACACAATATGAATTTAT [CACACA_site8100] | 8.93 ± 0.47
52 | ACATATATATTATAAGCATGCATGAGAAAATTTTTA [TGCATGCA_site1054] | 8.98 ± 0.41
53 | AAAAAAAAAAAAAAAACACACATTTGAAGAAAAAAA [CACACA_site7389] | 8.58 ± 0.51
54 | AATTGCTTCAAAATTAAACACACACTAATAAAAAAA [CACACA_site8855] | 8.93 ± 0.42
55 | TAATACATAAATAATGTGCACATGGAAATATATCTT | 9.21 ± 0.43
56 | TATAACTATGGGTGTACACATTAATCGTTTTTCTTT [CACACA_site5196] | 8.82 ± 0.47
57 | TATTGTAAAAAAGCAAAATTTATCACCTCCTTATTT [CACACA_negctrl_site172] | 8.5 ± 0.35
58 | TGTAATACATGTTGTTGTACAATATCTTTAACTTTT [XGTACX_site1219] | 8.84 ± 0.45
59 | CCACTAAAGGCATATACACACATTTTTTAAATTGCC [CACACA_site2839] | 8.98 ± 0.36
60 | TACACAAAAATAAACACACACACATATAAATAAATA [CACACA_site6599] | 9.76 ± 0.3
61 | TTATGGAAAAATATAACACACAATGATTTTTTATAA [CACACA_site1831] | 8.66 ± 0.41
62 | TTTTCGCTTTTATAAAATTATATGAAAAAACTAAAA [XGTACX_negctrl_site139] | 8.01 ± 0.33
63 | ATTTATATAAAATTAAAATAATACAAATTTATTCAT [GTGCAC_negctrl_site305] | 8.31 ± 0.43
64 | TTTTTTACATTCTGCACACAATTTATTTTTTTTTTT [CACACA_site4188] | 9.13 ± 0.45
65 | AAAATTATGCAGTAGGTGCAATACCCTCGGCTTTTT [GTGCAC_site9556] | 8.79 ± 0.39
66 | TTTTTTTTTTTTTTTGGTACACATTTTGGTTAATGG [XGTACX_site5109] | 8.65 ± 0.42

Row | Sequence | gcPBM binding intensity (ln)
67 | ATAAAAAGGTTTAAAAAAAAAAAAAAAAAAAAAAAA [CACACA_negctrl_site412] | 8.04 ± 0.5
68 | CTTGTGCTTTATAGGGTGCACATTTTGTTTTGGTAA [GTGCAC_site9899] | 8.8 ± 0.45
69 | TTATTAATTATATATAGTACACATTTCACAGATGGG [XGTACX_site2349] | 8.68 ± 0.34
70 | TGAACACATACATACACACACACAAAAAAAAAAAAA [CACACA_site392] | 9.76 ± 0.4
71 | AAAAAAAAACACGCATGTACATAAAAATAATCATAC [XGTACX_site1086] | 9.43 ± 0.49
72 | TTATTTATGAGGGTGACACACAAAAGAGTGTTAAGA [CACACA_site277] | 8.8 ± 0.54
73 | AAATAAAATAAAATAAAATAAAATAAAATAAAATAA [XGTACX_negctrl_site142] | 8.29 ± 0.67
74 | TATTTCAAATGTTATGTGCACATATTAATCCTACTT [GTGCAC_site9738] | 8.86 ± 0.43
75 | AATATCTGAAAATAAAGTACAAACATATTATAAATA [XGTACX_site5738] | 8.84 ± 0.52
76 | AATAATAATTTAAAAAGTACATTCTAATAAACACGT [XGTACX_site1444] | 8.78 ± 0.52
77 | TACTTATTTGATTGGGTGCATATATATAGTATGTAT [GTGCAC_site9845] | 8.96 ± 0.35
78 | AATGAATAAATAAACACACACACATATATATATATG [CACACA_site18] | 9.86 ± 0.21
79 | ATTATTGCAATTTAATGTACATAATACAAATTTGCC [XGTACX_site2729] | 8.89 ± 0.45
80 | TATACGTATACCTATACACACATATATATATATATA [CACACA_site1273] | 9.85 ± 0.16
81 | TATATTCAAAAAAATTCATTTCTGATTTTTTTTTTT [CACACA_negctrl_site1085] | 8.3 ± 0.62
82 | TGAAAAAAAAAATGCACACGCATACAGATAATATGT [CACACA_site4526] | 9.27 ± 0.45
83 | AATAATAATAGAAACACACACACATTTTTAAGAATA [CACACA_site6692] | 9.71 ± 0.11
84 | GATGAAATATCATTACGTACACAATAGTTTGTATTT [XGTACX_site5143] | 8.98 ± 0.42
85 | AACATATAAAAATGTGCACACACACCCATATATATA [CACACA_site1525] | 9.79 ± 0.3
86 | TATCTTAACAATTAGTGTACAGATAACCAATTAAAA [XGTACX_site3184] | 8.55 ± 0.39
87 | ATAATAAATGATAGCACACATATGTACATAAATACA [CACACA_site4634] | 9.24 ± 0.31
